Results from the supplement of paper PMC10441789.
The other results are listed elsewhere or left out. Antibody binding of pooled human sera (four to six donors per pool; dilution not stated) to peptides of the Trypanosoma cruzi antigen TSSA on microarrays. Quantile-normalised fluorescence in arbitrary units, mean of duplicate arrays; higher = more binding. No active / inactive call. The uninfected pools are read here as the healthy donors of the same country. The strongest signals lie near the top of the scale (about 60,000).

Key:
Experiment in all cases: antibody binding signal (normalised fluorescence) (arbitrary fluorescence units); higher = stronger serum antibody binding to peptide
[1] = system: pooled sera of chronic Chagas disease patients, Argentina
Description: (§1)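 Microarray of 15-residue peptides over residues 30-55 of Trypanosoma cruzi TSSAII, each with 1 to 10 substitutions at naturally variable positions, probed with one serum pool per country.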

[2] = system: pooled sera of chronic Chagas disease patients, Bolivia
Description: as §1

[3] = system: pooled sera of chronic Chagas disease patients, Brazil
Description: as §1

[4] = system: pooled sera of chronic Chagas disease patients, Colombia
Description: as §1

[5] = system: pooled sera of chronic Chagas disease patients, Mexico
Description: as §1

[6] = system: pooled sera of chronic Chagas disease patients, USA
Description: as §1

[7] = system: pooled sera of uninfected people, Argentina
Description: as §1

[8] = system: pooled sera of uninfected people, Bolivia
Description: as §1

[9] = system: pooled sera of uninfected people, Brazil
Description: as §1

[10] = system: pooled sera of uninfected people, Colombia
Description: as §1

[11] = system: pooled sera of uninfected people, Mexico
Description: as §1

[12] = system: pooled sera of uninfected people, USA
Description: as §1

| Sequence | antibody binding signal [1] | antibody binding signal [2] | antibody binding signal [3] | antibody binding signal [4] | antibody binding signal [5] | antibody binding signal [6] | antibody binding signal [7] | antibody binding signal [8] | antibody binding signal [9] | antibody binding signal [10] | antibody binding signal [11] | antibody binding signal [12] |
| --- | --- | --- | --- | --- | --- | --- | --- | --- | --- | --- | --- | --- |
| ENKPAAGEAPSQPGA | 8820 | 28000 | 45700 | 312 | 276 | 17300 | 200 | 340 | 177 | 130 | 173 | 176 |
| TDKKAATGETPSQPG | 5210 | 2680 | 33600 | 273 | 217 | 10900 | 292 | 280 | 263 | 455 | 273 | 239 |
| EKKAAAGGTPSQSGA | 700 | 650 | 269 | 4670 | 410 | 1720 | 170 | 422 | 1920 | 139 | 136 | 574 |
| TPPSGTEKKPAAGGT | 44400 | 7220 | 43400 | 1090 | 38700 | 7540 | 1370 | 825 | 2960 | 687 | 316 | 1070 |
| DKKTAAGEAPSPPGA | 320 | 215 | 804 | 395 | 456 | 6160 | 159 | 114 | 142 | 1090 | 447 | 151 |
| PSGKENKTATGGAPS | 7730 | 1920 | 9010 | 10400 | 8410 | 7970 | 5670 | 1990 | 140 | 482 | 250 | 209 |
| KENKTATGGAPSQPG | 405 | 318 | 1130 | 573 | 393 | 633 | 268 | 111 | 150 | 126 | 195 | 133 |
| GKENKPATGGTPSQP | 3310 | 572 | 15700 | 4300 | 5370 | 12900 | 677 | 480 | 258 | 176 | 521 | 132 |
| GTDKKAAAGGTPSPP | 309 | 235 | 230 | 5720 | 415 | 1440 | 128 | 201 | 1220 | 193 | 165 | 152 |
| TPPSGTEKKTAAGGT | 26100 | 1020 | 20200 | 5200 | 6300 | 2520 | 683 | 200 | 1210 | 191 | 107 | 140 |
| TPPSGTENKTATGGT | 50000 | 45900 | 50800 | 307 | 2240 | 19900 | 2460 | 554 | 1240 | 674 | 438 | 456 |
| TENKTATGGTPSQSG | 18000 | 1270 | 489 | 427 | 476 | 385 | 444 | 191 | 300 | 148 | 907 | 183 |
| DKKTATGGTPSQPGA | 575 | 477 | 613 | 4110 | 480 | 1470 | 526 | 108 | 314 | 707 | 938 | 154 |
| ISTPPSGKENKAATG | 13400 | 3250 | 8340 | 818 | 3060 | 2950 | 2480 | 1180 | 159 | 682 | 148 | 603 |
| GTDNKAATGETPSPS | 4130 | 6410 | 35800 | 317 | 213 | 16100 | 171 | 670 | 917 | 139 | 543 | 3430 |
| GKENKPAAGGTPSQP | 2680 | 624 | 9810 | 5290 | 6650 | 10100 | 691 | 229 | 358 | 195 | 245 | 104 |
| KEKKTAAGETPSPPG | 207 | 227 | 188 | 234 | 206 | 1360 | 119 | 108 | 109 | 337 | 78.5 | 218 |
| DNKAATGGTPSQSGA | 572 | 1090 | 467 | 511 | 510 | 279 | 341 | 168 | 944 | 201 | 443 | 141 |
| TPPSGKEKKAATGEA | 9660 | 411 | 714 | 516 | 21100 | 1770 | 461 | 663 | 105 | 429 | 158 | 159 |
| GTDNKPAAGETPSPP | 3340 | 269 | 43300 | 1400 | 328 | 5080 | 139 | 572 | 353 | 155 | 383 | 399 |
| PPSGKENKAATGGTP | 4480 | 684 | 3110 | 1460 | 2490 | 3440 | 3160 | 1610 | 166 | 743 | 161 | 300 |
| ENKTAAGEAPSPSGA | 198 | 993 | 2150 | 196 | 243 | 7690 | 195 | 104 | 182 | 149 | 111 | 125 |
| TPPSGKEKKTATGEA | 7810 | 341 | 651 | 464 | 16200 | 1080 | 385 | 745 | 130 | 342 | 181 | 152 |
| EKKAAAGGAPSPPGA | 489 | 228 | 302 | 5940 | 694 | 1080 | 206 | 789 | 350 | 134 | 140 | 544 |
| KTATGETPSPPGASS | 427 | 529 | 1970 | 203 | 281 | 4890 | 204 | 252 | 238 | 129 | 147 | 457 |

| Sequence | antibody binding signal [1] | antibody binding signal [2] | antibody binding signal [3] | antibody binding signal [4] | antibody binding signal [5] | antibody binding signal [6] | antibody binding signal [7] | antibody binding signal [8] | antibody binding signal [9] | antibody binding signal [10] | antibody binding signal [11] | antibody binding signal [12] |
| --- | --- | --- | --- | --- | --- | --- | --- | --- | --- | --- | --- | --- |
| KKPATGGTPSPSGAS | 372 | 811 | 353 | 971 | 309 | 271 | 313 | 550 | 277 | 143 | 128 | 316 |
| TEKKPATGGTPSQSG | 1690 | 540 | 778 | 1920 | 1040 | 1460 | 331 | 439 | 1450 | 239 | 237 | 887 |
| TPPSGTEKKPAAGGA | 38200 | 20200 | 38100 | 1540 | 31000 | 8530 | 2020 | 948 | 1930 | 247 | 580 | 1320 |
| KKAAAGGTPSQSGAS | 206 | 241 | 214 | 2460 | 203 | 1160 | 249 | 118 | 1260 | 119 | 169 | 222 |
| SGTDNKPATGEAPSQ | 39200 | 47200 | 45100 | 1090 | 223 | 33300 | 725 | 560 | 484 | 211 | 308 | 240 |
| KEKKPATGGAPSQPG | 397 | 284 | 4840 | 306 | 320 | 784 | 240 | 204 | 84.5 | 95.7 | 76.9 | 324 |
| EKKPAAGETPSPSGA | 2330 | 579 | 2160 | 481 | 312 | 2650 | 172 | 745 | 264 | 197 | 321 | 1140 |
| GTDNKPATGGAPSPP | 3850 | 17300 | 41200 | 1890 | 490 | 2990 | 343 | 1330 | 583 | 189 | 342 | 182 |
| ENKTAAGEAPSQSGA | 385 | 19200 | 12100 | 192 | 248 | 8100 | 104 | 155 | 231 | 144 | 104 | 136 |
| SGKDKKAATGGAPSQ | 588 | 256 | 627 | 876 | 1050 | 1060 | 220 | 270 | 81.2 | 204 | 84.5 | 83.5 |
| TENKPATGETPSPSG | 41900 | 35100 | 35000 | 301 | 597 | 28100 | 310 | 515 | 309 | 142 | 1850 | 2260 |
| GTDKKAATGGTPSQS | 715 | 525 | 275 | 3170 | 1020 | 1210 | 310 | 186 | 537 | 651 | 198 | 150 |
| KENKAAAGEAPSQPG | 5130 | 4710 | 40300 | 164 | 150 | 11600 | 115 | 120 | 123 | 129 | 73.8 | 119 |
| TENKAATGGAPSPSG | 32400 | 588 | 3400 | 541 | 664 | 2440 | 280 | 189 | 343 | 182 | 216 | 302 |
| KENKTATGGTPSPPG | 267 | 584 | 262 | 625 | 273 | 488 | 219 | 153 | 135 | 155 | 171 | 128 |
| SGKENKAAAGGAPSP | 3630 | 1040 | 18600 | 8890 | 4440 | 20900 | 6100 | 1500 | 117 | 312 | 199 | 170 |
| GTEKKAAAGGAPSPP | 913 | 185 | 242 | 5540 | 1210 | 1340 | 222 | 419 | 222 | 145 | 121 | 143 |
| TEKKAAAGGTPSPPG | 1250 | 169 | 250 | 8300 | 843 | 2700 | 158 | 116 | 1760 | 228 | 187 | 309 |
| GKDNKAATGETPSPP | 4470 | 2050 | 18600 | 2420 | 2960 | 11900 | 250 | 327 | 113 | 252 | 141 | 831 |
| TDNKAAAGGAPSQPG | 406 | 2460 | 13100 | 2250 | 294 | 222 | 382 | 247 | 238 | 211 | 153 | 183 |
| PSGKDNKPATGGTPS | 3180 | 813 | 6170 | 4550 | 3860 | 6210 | 774 | 996 | 183 | 130 | 133 | 152 |
| KKTATGEAPSPSGAS | 1780 | 4220 | 5060 | 160 | 342 | 13500 | 337 | 259 | 104 | 120 | 84.5 | 313 |
| SGTDKKPATGGAPSP | 3410 | 2210 | 23200 | 11700 | 2830 | 2880 | 425 | 1180 | 142 | 347 | 1960 | 304 |
| GKDKKAATGEAPSPS | 15100 | 3840 | 15800 | 1940 | 1720 | 18500 | 305 | 72.9 | 90.3 | 171 | 70.4 | 102 |
| PSGKDNKTATGEAPS | 14500 | 17100 | 14400 | 3180 | 1550 | 19500 | 362 | 345 | 275 | 274 | 130 | 198 |
